# Experimental data from PubChem BioAssay AID886 (National Center for Advancing Translational Sciences (NCATS), 2007).
# “And” between values parts separate entries of the source, which are not always exact repeats. Equal entries are not always repeated. The campaign covered roughly 73,000 compounds. About 2,500 (3.4%) were called active. The inconclusive results got no clear call from the source; some entries with a clear call stand among them for comparison. Calls come from the whole dose curve; as a rule, active = well fitted inhibition curve with a large enough effect; inconclusive = small, poorly fitted or top-dose-only effect; inactive = no such curve, though single readings can be large or run the other way. Potencies of inconclusive entries are doubtful fits and often do not repeat. A structure can be active in one record and inactive in another.
# Biological target: 3-hydroxyacyl-CoA dehydrogenase type-2 (Homo sapiens) (UniProt Q99714)
# Test: qHTS Assay for Inhibitors of HADH2 (Hydroxyacyl-Coenzyme A Dehydrogenase, Type II); note: nearly all actives have a fitted effect of over 60% in size
# Details: recombinant HADH2, NADH fluorescence, beta-hydroxybutyryl-CoA; series mostly up to 57.1 µM
# Source text: Assay Overview: NIH Molecular Libraries Screening Centers Network [MLSCN] NIH Chemical Genomics Center [NCGC] Structural Genomics Consortium [SGC] Grant Number: None HADH2: Hydroxyacyl-Coenzyme A dehydrogenase, type II, was supplied by researchers at the Structural Genomics Consortium, Oxford University lab (PI Udo Oppermann). The mitochondrial enzyme 17-hydroxysteroid dehydrogenase type 10 (HSD17-10) previously classified as type II hydroxyacyl-CoA dehydrogenase (HADH2) catalyzes the NAD+ dependent oxidation of a variety of substrates including acyl-CoAs, androgens and neurosteroids as well as bile acids(Shafqat N, Marschall HU, Filling C, et al. Biochemical Journal. 2003;376(Pt 1):49-60). The role in neurodegeneration by binding to amyloid-peptide led to its identification (Oppermann UC, et al FEBS Letters. 1999;451(3):238-242 and Yan SD, et al. Nature. 1997;389(6652):689-695), and mutations in its gene appear to be causative for 2-methyl-3-hydroxybutyryl-CoA dehydrogenase deficiency (Ofman R, et al. American Journal of Human Genetics. 2003;72(5):1300-1307). The enzyme was produced by E.coli fermentation as His-tagged recombinant for the purpose of X-ray structure determination, and had been mass-spectrometry characterized. Inhibition of HADH2 activity was screened by utilizing beta-hydroxybutyryl coenzyme A as an electron donor and NAD+ as an electron acceptor/cofactor. An increase in the fluorescence intensity due to conversion of NAD+ to NADH was used to measure the enzyme activity.
# Assay Protocol: Buffer: 100 mM Tris-HCl pH 9.0, containing 0.01 % Tween-20. Reagents/Controls: Buffer in columns 3 and 4 as negative control (no enzyme). Substrate/cofactor solution: 1 mM NAD+ and 90 uM beta-hydroxybutyryl coenzyme A (Sigma-Aldrich, St. Louis, MO) final concentrations dispensed throughout the plate. Enzyme: 20 nM HADH2 final concentration in columns 1, 2, 5-48. Column 1 is neutral (100% activity). Column 2 contained titration of apomorphine (Sigma-Aldrich, A 4393, PubChem CID 2215, top concentration 500 uM, then 1:2 dilution in duplicate) Assay Steps: Three uL of enzyme were dispensed to 1536-well Greiner black solid bottom plates. Compounds and controls (23 nL) were transferred via Kalypsys PinTool. The plates were incubated for 15 min at room temperature, and then 1 uL of substrate/cofactor solution was added to start the reaction. The plates were immediately transferred to and read every 30 seconds for 4 min on ViewLux High-throughput CCD imager (Perkin-Elmer) using 360 nm excitation and 450 nm emission fluorescence protocol. The fluorescence intensity difference between the last and the first time points was used to compute reaction progress.
# % is set by controls: 0 for no effect and ±100 for the full control effect; potency is the fitted concentration of half-maximal effect; tags give direction and shape of the fitted curve.
# Chain of UniProt Q99714 (Q99714 whole entry, looked up): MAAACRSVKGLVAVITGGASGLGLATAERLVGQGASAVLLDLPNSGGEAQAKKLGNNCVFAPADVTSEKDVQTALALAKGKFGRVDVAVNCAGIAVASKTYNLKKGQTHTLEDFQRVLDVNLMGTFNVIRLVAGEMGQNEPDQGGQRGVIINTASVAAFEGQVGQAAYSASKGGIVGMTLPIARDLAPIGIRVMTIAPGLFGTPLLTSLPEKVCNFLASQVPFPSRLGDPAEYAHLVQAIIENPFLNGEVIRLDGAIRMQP
# Chain of UniProt Q99714 (Q99714 whole entry, looked up): as above
SMILES,Potency,"activity change, negative = inhibition"
O=C(O)c1cc[c]([Hg][S]c2ncnc3nc[nH]c23)cc1,active: 2.51 µM,
CCCCn1c(NC(=O)c2ccco2)c(C(=O)OCC)c2nc3ccccc3nc21,active: 31.6 µM,
Fc1ccccc1N1CCN(Cc2ccc3c(c2)OCO3)CC1,active: 5.01 µM,
C=C(C)[C@@H]1CN[C@H](C(=O)O)[C@H]1CC(=O)O,inactive,
COc1ccc2c(c1)CC1(CN2C)C(=O)NC(=O)N(CCc2ccccc2)C1=O (stereo not given),"inconclusive: 39.8 µM [inhibitor, single point]",
C[C@H](N)[C@H](O)c1ccc(O)c(O)c1,active: 0.1 µM,
Cn1ccnc1,"inconclusive: 39.8 µM [inhibitor, single point]",
COC(=O)c1ccccc1C(=O)OC,inactive,
Cn1cc(C(=O)N2CCC3(CC2)OCCO3)c2c3ccccc3n(C)c2c1=O,"inconclusive: 39.8 µM [inhibitor, single point]",
Cc1ccc2nsnc2c1NS(=O)(=O)c1c(C)ccc2nsnc12,"inconclusive: 15.8 µM [inhibitor, partial curve]",
C[N+]1(C)CCO[C@@](O)(c2ccc(-c3ccc([C@]4(O)C[N+](C)(C)CCO4)cc3)cc2)C1,inactive,
O=C(c1ccc2nc3ccc(Cl)cc3c(=O)n2c1)N1CCC2(CC1)OCCO2,"inconclusive: 31.6 µM [inhibitor, single point]",
CC(C)OCCCNC(=O)c1c(N)n(CC2CCCO2)c2nc3ccccc3nc12 (stereo not given),active: 31.6 µM,
O=[N+]([O-])c1cc(O)c(O)c([N+](=O)[O-])c1,"inconclusive: 12.6 µM [inhibitor, partial curve] and inconclusive: 3.16 µM [inhibitor, full curve]",
Nc1c(C(=O)OC2CCCCC2)c2nc3ccccc3nc2n1CC1CCCO1 (stereo not given),active: 12.6 µM,
C=CCOC(=O)c1ccccc1N,active: 39.8 µM,
Nc1ccccc1C(=O)O,active: 39.8 µM,
CCCc1[nH]nc2c1C(CCC)C(C#N)=C(N)O2 (stereo not given),"inconclusive: 39.8 µM [inhibitor, single point]",
NC(=O)CSP(=O)(c1ccccc1)c1ccccc1,"inconclusive: 12.6 µM [inhibitor, partial curve]",
C=C1CC[C@@H](O)C/C1=C/C=C1\CCC[C@]2(C)[C@@H]1CC[C@H]2[C@@H](C)CCCC(C)C,inactive,
Oc1c(Cl)cc(Cl)cc1Cl,"inconclusive: 31.6 µM [inhibitor, single point]",
C[C@H]1CCCC(=O)CCC/C=C/c2cc(O)cc(O)c2C(=O)O1,"inconclusive: 31.6 µM [inhibitor, single point] and inconclusive: 39.8 µM [inhibitor, single point]",
c1ccc2c(N3CCNCC3)cccc2c1,"inconclusive: 31.6 µM [inhibitor, single point]",
C[N+]1=Cc2cc3c(cc2CC1)OCO3,active: 31.6 µM,
COc1ccc2c3c1O[C@@H]1C(=O)CC[C@@]4(O)[C@@H](C2)N(CC2CC2)CC[C@]314,"inconclusive: 39.8 µM [inhibitor, single point]",
ClCBr,inactive,
CCOC(=O)c1ccc(NC(=O)c2c(O)[nH]c(=O)[nH]c2=O)cc1,"inconclusive: 0.794 µM [inhibitor, partial curve]",

SMILES,Potency,"activity change, negative = inhibition"
COP(=S)(OC)Oc1ccc(SC)c(C)c1,"inconclusive: 39.8 µM [inhibitor, single point]",
NC(N)=Nc1ccc2[nH]c3c(c2c1)C[C@]1(O)[C@@H]2Cc4ccc(O)c5c4[C@]1(CCN2CC1CC1)[C@H]3O5,active: 10 µM,
CC1=C[C@@H]2c3cccc4[nH]cc(c34)C[C@H]2N(C)C1,inactive,
Cc1nn(CCC#N)c2c1P(=S)(N1CCCC1)OC(c1ccc(F)cc1)=N2 (stereo not given),"inconclusive: 1.58 µM [inhibitor, full curve]",
Cc1noc(C(=O)Nc2sc3c(c2C#N)CCC3)c1Cl,"inconclusive: 15.8 µM [inhibitor, partial curve]",
O=C(O)c1ccccc1-c1c2cc(Br)c(=O)cc-2oc2[c]([Hg])c(O)c(Br)cc12,active: 3.16 µM,
CCOC(=O)c1c(N)n(CCCOC(=O)c2ccco2)c2nc3ccccc3nc12,active: 5.01 µM,
S=C(S)N1CCCC1,active: 1.26 µM and active: 251 nM,
NC(N)=NC(=O)c1nc(Cl)c(N)nc1N,active: 31.6 µM,
Oc1ccc(Cl)cc1Sc1cc(Cl)ccc1O,active: 1.26 µM,
CCCC1(CCC)C(=O)NC(=NCc2ccccc2)NC1=O,"inconclusive: 31.6 µM [inhibitor, single point]",
C=CCn1c(O)c(C(CC)=NCc2cc(OC)cc(OC)c2)c(=O)[nH]c1=O,inactive,
COC(=O)C(O)(c1cn(C)c2ccccc12)C(F)(F)F (stereo not given),inactive,
Oc1ccc([C@H](O)[C@@H]2CCCCN2)cc1O,active: 1 µM,
CN(C)CC#CCOCCOCCC#N,inactive,
CCCC(C)(COC(N)=O)COC(N)=O,"inconclusive: 39.8 µM [inhibitor, single point]",
CNCCc1ccc(O)c(O)c1,active: 1.26 µM,
CCNCCC1(CC)C(=O)NC(=O)NC1=O,,inactive: -2.28% [at 11.4 µM]
Oc1cc2c(cc1O)[C@H]1c3ccccc3CN[C@@H]1CC2,active: 0.631 µM,
O=C(Cn1ncc2c3ccccc3n(Cc3cccc(Cl)c3)c2c1=O)N1CCC2(CC1)OCCO2,"inconclusive: 39.8 µM [inhibitor, single point]",
COc1ccc(OC)c(CC(=O)O)c1,"inconclusive: 3.16 µM [inhibitor, single point]",
CN(N=O)c1ccc(O)c(O)c1,active: 1.58 µM,
COc1ccc(C=O)cc1OC,inactive,
CC(=O)[C@@H]1CC[C@@H]2[C@H]3CC[C@H]4C[C@@H](O)CC[C@]4(C)[C@@H]3C(=O)C[C@]21C,inactive,
COc1ccc2c(c1O)-c1cccc3c1[C@H](C2)N(C)CC3,active: 20 µM,
CCCCNC(=O)c1c(N)n(CCCOC)c2nc3ccccc3nc12,active: 12.6 µM,
CC(C)Nc1ccc(Nc2ccccc2)cc1,"inconclusive: 0.501 µM [inhibitor, full curve]",

SMILES,Potency,"activity change, negative = inhibition"
O=C(c1cc2c(s1)-c1ccccc1OC2)N1CCC2(CC1)OCCO2,active: 31.6 µM,
Cc1ccc(-n2c(O)c(C=NC3CCCCC3N)c(=O)[nH]c2=O)cc1C (stereo not given),active: 31.6 µM,
COC(=O)[C@@]1(Cc2ccccc2)[C@H]2c3cc(C(=O)N(C)C)[nH]c3C[C@H]2CN1C(=O)c1ccccc1,inactive,
O=C(c1ccc2nc(-c3ccco3)c(-c3ccco3)nc2c1)N1CCC2(CC1)OCCO2,active: 3.98 µM,
CC1=C(C(=O)Nc2ccccc2)SCCO1,"inconclusive: 3.98 µM [inhibitor, single point]",
C[C@@H]1Cc2cc3c(cc2C(c2ccc(N)cc2)=NN1)OCO3,"inconclusive: 25.1 µM [inhibitor, partial curve]",
Oc1cc(Cl)c(Cl)c(Cl)c1Cl,active: 31.6 µM,
CCOc1ccccc1-n1c(O)c(C=NCc2ccc3c(c2)OCO3)c(=O)[nH]c1=O,"inconclusive: 0.631 µM [inhibitor, full curve, poor fit]",
Nc1ccccc1C(=O)OC1CSC1,"inconclusive: 39.8 µM [inhibitor, single point]",
Cc1cc2c(cc(C(=O)N3CCC(C(=O)NC4CCCC4)CC3)n2Cc2c(F)cccc2Cl)o1,"inconclusive: 3.16 µM [inhibitor, single point]",
c1cncc(CNC2=NCCC2)c1,"inconclusive: 3.16 µM [inhibitor, single point]",
Clc1ccc(C(c2ccc(Cl)cc2)n2cc[n+](C[C@@H](OCc3ccc(Cl)cc3Cl)c3ccc(Cl)cc3Cl)c2)cc1,"inconclusive: 0.126 µM [inhibitor, full curve]",
CCOC(=O)c1c(C)c(P(=S)(N2CCOCC2)N2CCOCC2)n(C)c1C,active: 10 µM,
c1ccc2c(c1)-c1cccc3c1c-2cc1ccccc13,active: 3.16 µM,
O=C1CCCc2c1nc(-c1ccccc1)n2O,"inconclusive: 31.6 µM [inhibitor, single point]",
CN(C)Cc1c[nH]c2ccccc12,"inconclusive: 31.6 µM [inhibitor, partial curve, poor fit]",
COC1=C(C)C(=O)c2c(c(COC(N)=O)c3n2C[C@@H]2[C@@H]3N2C)C1=O (stereo not given in full),,inactive: 12.3% [at 11.4 µM]
Cc1nc2ccccc2c(=O)n1-c1cccc(O)c1,"inconclusive: 12.6 µM [inhibitor, partial curve]",
COc1cc(C=C(C#N)C#N)cc(O)c1O,active: 20 µM,
C[C@H]1CC[C@@H]2[C@@H](C)C(=O)O[C@H]3O[C@@]4(C)CC[C@@H]1[C@]32OO4,inactive,
CC[C@@H](CO)NC(=O)[C@H]1C=C2c3cccc4[nH]cc(c34)C[C@H]2N(C)C1,active: 31.6 µM,
CCC(=O)N1CCN(c2cc3c(cc2F)c(=O)c(C(=O)O)cn3CC)CC1,active: 25.1 µM,
COc1ccc(C(O)P(=O)(OC2CCCCC2)c2ccc(N(C)C)cc2)cc1OC (stereo not given),"inconclusive: 20 µM [inhibitor, partial curve]",
CC1(C)CCC(C)(C)c2c1ccc(O)c2Cc1c(O)ccc2c1C(C)(C)CCC2(C)C,,inactive: -4.54% [at 11.4 µM]
CC(C)CCNC(=O)c1c(N)n(CC2CCCO2)c2nc3ccccc3nc12 (stereo not given),active: 10 µM,
[CH3][Hg][Cl],"inconclusive: 39.8 µM [inhibitor, single point]",
